Data reported in the supplement of paper PMC12067230.
Single values of this set are uncertain.

Experiment: amyloid nucleation score relative to library mode (yeast Sup35 reporter selection) (log enrichment difference); higher = more amyloid nucleation; sequences are the first 22 residues of the Bri2 peptide extended by up to 12 random residues
Conditions: random library (experiment): 1;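 active = nucleation score significantly above 0 at FDR 0.05; inactive = not significantly above 0 or absent from output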
Procedure: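 Random C-terminal extensions of the 22-aa Bri2 peptide by 12 NNK codons; premature stops give shorter extensions. Peptides were fused to the Sup35 nucleation domain in S. cerevisiae [psi-pin-] and selected on -ADE-URA plates for 7 d at 30 °C. The nucleation score is log(output/input), centred to the mode of each of 3 independent libraries (1 input, 3 technical output replicates), with duplicates merged. Sequences absent from the output ('random_non_nuc') were imputed with the library mode value, so they are given as censored (<). Nucleators are scores significantly >0 at FDR 0.05.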
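Further: [psi-pin-] Saccharomyces cerevisiae expressing SupN fusions, induced by 100 µM Cu2SO4, selected 7 d at 30 °C without adenine and uracil, scored by deep sequencing of output versus input.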

| Sequence | amyloid nucleation score |
| --- | --- |
| EASNCFAIRHFENKFAVETLICADTCCKCRLSNV | 3.26 |
| EASNCFAIRHFENKFAVETLICADTLLGQECVML | inactive |
| EASNCFAIRHFENKFAVETLICADTLYWSLGVLV | 0.451 |
| EASNCFAIRHFENKFAVETLICADVRKRMKSRQA | inactive |
| EASNCFAIRHFENKFAVETLICADVRMMFCCSVG | 6.43 |
| EASNCFAIRHFENKFAVETLICADVVCTRCTVWV | inactive |
| EASNCFAIRHFENKFAVETLICADVW | inactive |
| EASNCFAIRHFENKFAVETLICAE | inactive |
| EASNCFAIRHFENKFAVETLICAEAMRQVGEWQG | inactive |
| EASNCFAIRHFENKFAVETLICAECCGVSCAGHW | 5.71 |
| EASNCFAIRHFENKFAVETLICAEERMVVTRLWP | inactive |
| EASNCFAIRHFENKFAVETLICAEESQSSVHYRI | 0 |
| EASNCFAIRHFENKFAVETLICAEEWVGNLASIA | inactive |
| EASNCFAIRHFENKFAVETLICAEFRAGPLGAAR | inactive |
| EASNCFAIRHFENKFAVETLICAEGLSPLRVSWV | inactive |
| EASNCFAIRHFENKFAVETLICAEGQCSACRREH | -0.111 |
| EASNCFAIRHFENKFAVETLICAEMWSSLWHRVA | inactive |
| EASNCFAIRHFENKFAVETLICAERRSLPRLSEA | inactive |
| EASNCFAIRHFENKFAVETLICAEVAKFEACHGM | inactive |
| EASNCFAIRHFENKFAVETLICAEVKCNARFCTW | inactive |
| EASNCFAIRHFENKFAVETLICAEVQVG | inactive |
| EASNCFAIRHFENKFAVETLICAEWLMWWTVGSV | 3.68 |
| EASNCFAIRHFENKFAVETLICAEWV | inactive |
| EASNCFAIRHFENKFAVETLICAF | inactive |
| EASNCFAIRHFENKFAVETLICAFELFM | 5.16 |
| EASNCFAIRHFENKFAVETLICAFFTRCM | inactive |

| Sequence | amyloid nucleation score |
| --- | --- |
| EASNCFAIRHFENKFAVETLICAFGACWGVLRDG | 6.12 |
| EASNCFAIRHFENKFAVETLICAFGGCDSWKRSK | 6 |
| EASNCFAIRHFENKFAVETLICAFGVKSCVMCW | inactive |
| EASNCFAIRHFENKFAVETLICAFL | 5.21 |
| EASNCFAIRHFENKFAVETLICAFLSVVSRSCKV | inactive |
| EASNCFAIRHFENKFAVETLICAFLTVRSNESKV | 2.18 |
| EASNCFAIRHFENKFAVETLICAFMLLRPRWEGV | inactive |
| EASNCFAIRHFENKFAVETLICAFMMHWASGHIS | inactive |
| EASNCFAIRHFENKFAVETLICAFPCMFIMGTRH | 2.25 |
| EASNCFAIRHFENKFAVETLICAFQR | 5.33 |
| EASNCFAIRHFENKFAVETLICAFRGIEGSSCLS | inactive |
| EASNCFAIRHFENKFAVETLICAFRSNGSWPQCW | 1.82 |
| EASNCFAIRHFENKFAVETLICAFRYGFCLDGYR | -0.295 |
| EASNCFAIRHFENKFAVETLICAFSFGP | 8.05 |
| EASNCFAIRHFENKFAVETLICAFTLLLYVWRYR | inactive |
| EASNCFAIRHFENKFAVETLICAFTMHQQRSWWR | inactive |
| EASNCFAIRHFENKFAVETLICAFVGVMVTKSFQ | inactive |
| EASNCFAIRHFENKFAVETLICAFVMFRFHCWYM | inactive |
| EASNCFAIRHFENKFAVETLICAFWAAWAALGRG | inactive |
| EASNCFAIRHFENKFAVETLICAGDRLRQGIASL | inactive |
| EASNCFAIRHFENKFAVETLICAGERVRRCGTGS | inactive |
| EASNCFAIRHFENKFAVETLICAGGGRYHVRMPF | inactive |
| EASNCFAIRHFENKFAVETLICAGHELVMWGYSH | inactive |
| EASNCFAIRHFENKFAVETLICAGISRD | inactive |
| EASNCFAIRHFENKFAVETLICAGKGVGRSTMGE | -0.317 |
| EASNCFAIRHFENKFAVETLICAGKLRTTVRVLS | inactive |

Same assay, conditions: random library (experiment): 2

| Sequence | amyloid nucleation score |
| --- | --- |
| EASNCFAIRHFENKFAVETLICADTFHY | -0.678 |
| EASNCFAIRHFENKFAVETLICADVEGQYWCDRV | inactive |
| EASNCFAIRHFENKFAVETLICADVKWC | 4.9 |
| EASNCFAIRHFENKFAVETLICADVSYALFCCMN | 8.7 |
| EASNCFAIRHFENKFAVETLICAEF | inactive |
| EASNCFAIRHFENKFAVETLICAEFD | inactive |
| EASNCFAIRHFENKFAVETLICAEGFNKFIFRCV | inactive |
| EASNCFAIRHFENKFAVETLICAEGNMYLGGFVY | inactive |
| EASNCFAIRHFENKFAVETLICAELSRRFSMVLC | inactive |
| EASNCFAIRHFENKFAVETLICAESSRDWTVDRK | inactive |
| EASNCFAIRHFENKFAVETLICAESVDFSLMCDL | inactive |
| EASNCFAIRHFENKFAVETLICAETSIFNEDVGK | inactive |
| EASNCFAIRHFENKFAVETLICAFA | -0.365 |
| EASNCFAIRHFENKFAVETLICAFDDHSTSFV | inactive |
| EASNCFAIRHFENKFAVETLICAFEMRNSFTN | 6.26 |
| EASNCFAIRHFENKFAVETLICAFFIPIGSDLVW | inactive |
| EASNCFAIRHFENKFAVETLICAFFKNSASFLNL | -1.02 |
| EASNCFAIRHFENKFAVETLICAFGIGPVDWDIW | inactive |

| Sequence | amyloid nucleation score |
| --- | --- |
| EASNCFAIRHFENKFAVETLICAFGSIRGSMDSG | 3.13 |
| EASNCFAIRHFENKFAVETLICAFHLFLRIHRDS | inactive |
| EASNCFAIRHFENKFAVETLICAFIETSHVGYVL | inactive |
| EASNCFAIRHFENKFAVETLICAFINTRLGLD | inactive |
| EASNCFAIRHFENKFAVETLICAFIRT | inactive |
| EASNCFAIRHFENKFAVETLICAFLIDVRFCW | 1.11 |
| EASNCFAIRHFENKFAVETLICAFNPICPDPYLA | 5.06 |
| EASNCFAIRHFENKFAVETLICAFQLNICYYTVG | inactive |
| EASNCFAIRHFENKFAVETLICAFSSQCCWSCLW | 4.63 |
| EASNCFAIRHFENKFAVETLICAFTITLFIVRV | -0.104 |
| EASNCFAIRHFENKFAVETLICAFWIGLVSRLMW | 0.47 |
| EASNCFAIRHFENKFAVETLICAFYAECFIFLRN | inactive |
| EASNCFAIRHFENKFAVETLICAFYAYFECVYYG | inactive |
| EASNCFAIRHFENKFAVETLICAFYMSRFLGSFG | inactive |
| EASNCFAIRHFENKFAVETLICAGAM | inactive |
| EASNCFAIRHFENKFAVETLICAGFFIMFRDCME | inactive |
| EASNCFAIRHFENKFAVETLICAGIMNFMVLWG | inactive |
| EASNCFAIRHFENKFAVETLICAGKVEEPWGMRG | inactive |

Same assay, conditions: random library (experiment): 3

| Sequence | amyloid nucleation score |
| --- | --- |
| EASNCFAIRHFENKFAVETLICADVSGGWCTASW | 6.06 |
| EASNCFAIRHFENKFAVETLICADVVCHGLAIPR | 4.12 |
| EASNCFAIRHFENKFAVETLICAEARR | inactive |
| EASNCFAIRHFENKFAVETLICAEAVWGHQRRRW | 2.91 |
| EASNCFAIRHFENKFAVETLICAEEGSVGVTLLV | inactive |
| EASNCFAIRHFENKFAVETLICAEGDGIYKSVMR | inactive |
| EASNCFAIRHFENKFAVETLICAESPDSKFRYNL | inactive |
| EASNCFAIRHFENKFAVETLICAESWCPLTRVKE | inactive |
| EASNCFAIRHFENKFAVETLICAEVSCCKSDSYS | 6.74 |
| EASNCFAIRHFENKFAVETLICAEVSCRSVPVLE | inactive |
| EASNCFAIRHFENKFAVETLICAFAVGQLRERGA | 1.41 |
| EASNCFAIRHFENKFAVETLICAFDEWLFLRSFR | inactive |
| EASNCFAIRHFENKFAVETLICAFEHSNWCEREG | 1.18 |
| EASNCFAIRHFENKFAVETLICAFEMRRLQSGLA | inactive |
| EASNCFAIRHFENKFAVETLICAFIAQFLVDRVG | inactive |
| EASNCFAIRHFENKFAVETLICAFLVIMPVYKVK | inactive |
| EASNCFAIRHFENKFAVETLICAFMAMNELNKGW | inactive |
| EASNCFAIRHFENKFAVETLICAFMCFWSSSSLH | inactive |
| EASNCFAIRHFENKFAVETLICAFNMCMWTRESV | 8.1 |
| EASNCFAIRHFENKFAVETLICAFRV | 1.47 |
| EASNCFAIRHFENKFAVETLICAFTNVGVFYFRD | inactive |
| EASNCFAIRHFENKFAVETLICAFVRELHRYHKM | inactive |
| EASNCFAIRHFENKFAVETLICAG | inactive |
| EASNCFAIRHFENKFAVETLICAGAISEWYIVRR | inactive |
| EASNCFAIRHFENKFAVETLICAGARLEGESTWR | 1.1 |
| EASNCFAIRHFENKFAVETLICAGDVPHLETVAV | inactive |
